Data from PubChem BioAssay AID504466 (National Center for Advancing Translational Sciences (NCATS), 2011).
Among all 330,000 compounds or so, about 4,200 (1.3%) were called active. Inconclusive results, whose numbers are uncertain, are shown with a selection of clear calls. The call rests on the fitted dose curve; in most records, active means well fitted activation curve with a large enough effect; inconclusive means small, poorly fitted or top-dose-only effect; inactive means no such curve, though single readings can be large or run the other way. Potencies beside an inconclusive call are fits to weak or partial responses and may not hold up.

Test: qHTS screen for small molecules that induce genotoxicity in human embryonic kidney (HEK293T) cells expressing luciferase-tagged ELG1; further: nearly all actives have a fitted effect of over 60% in size; on activity change, positive = activation: % of control where 0% means no effect
Details: HEK293T ELG1-luciferase reporter, luminescence, 16 h; series mostly up to 46 µM; activity change, positive = activation: at the top concentration
Method in brief: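 16 hr compound incubation (37 °C, 5% CO2) of HEK293T cells carrying luciferase-tagged ELG1; luciferase then measured by ONE-Glo luminescence after 30 min at RT.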
Potency means the concentration at half of the fitted maximal effect; tags describe the fitted curve by direction and shape.

| Structure (SMILES) | Potency | activity change, positive = activation |
| --- | --- | --- |
| CCOC(=O)c1sc(=NC(=O)c2cccs2)n(C)c1C | inconclusive: 2.31 µM [activator, partial curve] | – |
| COc1cc(-c2noc(C)c2/C=C/c2ccc(OC(C)=O)cc2)cc(OC)c1OC | inconclusive: 6.51 µM [activator, partial curve] | – |
| O=C1/C(=C/N(C(=O)c2ccco2)c2ccc(Br)cc2)Sc2ccccc21 | active: 11.6 µM | – |
| O=C(CSCc1ccccc1)N1CCN(S(=O)(=O)c2cccc(F)c2)CC1 | – | inactive: -0.359% |
| O=C(CN(c1ccc2c(c1)OCCO2)S(=O)(=O)c1ccccc1)NCc1ccc(Cl)cc1 | – | inactive: -10.9% |
| COc1cc(C(=O)N(C)CCOc2ccccc2)ccc1OCC(=O)Nc1cccc(C(F)(F)F)c1 | inconclusive: 1.83 µM [activator, full curve, poor fit] | – |
| O=[N+]([O-])c1ccccc1-c1nc(-c2ccc(Br)o2)no1 | inconclusive: 5.8 µM [activator, partial curve] | – |
| O=C(Nc1ccc2ccccc2n1)c1ccccc1Cl | inconclusive: 1.3 µM [activator, partial curve] | – |
| CC(=O)Nc1cccc(-c2csc(Nc3ccccn3)n2)c1 | inconclusive: 1.84 µM [activator, full curve] | – |
| Cc1ccc(CSc2nnc(SCC(=O)N/N=C/c3c[nH]c4ccccc34)s2)cc1 | inconclusive: 29.1 µM [activator, single point] | – |
| CCOc1cccc(-c2nn3c(-c4ccco4)nnc3s2)c1 | inconclusive: 14.6 µM [activator, partial curve, poor fit] | – |
| CCOc1ccc(NC(=O)CN(c2ccc(OC)cc2)S(C)(=O)=O)cc1 | active: 16.4 µM | – |
| Cc1sc(NC(=O)c2ccccc2)c(C#N)c1-c1ccccc1 | inconclusive: 2.59 µM [activator, partial curve] | – |
| C(=N\Nc1nc(-c2ccccn2)nc2ccccc12)/c1ccccc1 | – | inactive: -10.8% |
| Cc1nc2nc(-c3ccc(F)cc3)cn2nc1C | active: 1.64 µM | – |
| Cc1cc(NC(=O)CSc2nc3c(cc2C#N)CCCC3)no1 | inconclusive: 2.91 µM [activator, full curve] | – |
| COC(=O)c1sc(NC(=O)Cc2cccs2)nc1C | active: 20.6 µM | – |
| COc1ccc(NC(=O)Nc2nnc(C(C)C)s2)cc1 | inconclusive: 14.6 µM [activator, partial curve, poor fit] | – |
| CCOCCCN1CN(Cc2ccco2)CNC1=S | inconclusive: 32.6 µM [activator, partial curve, poor fit] | – |
| COc1ccc(OC)c(C2CC(=O)N3CN(c4ccccc4)CSC3=C2C#N)c1 (centres undefined) | – | inactive: 1.93% |
| Cc1cccc2cc(COC(=O)C(C)C)c(=O)[nH]c12 | inconclusive: 18.4 µM [activator, partial curve, poor fit] | – |
| CCOC(=O)c1nnsc1NC(=O)Nc1ccc(OC)cc1 | inconclusive: 14.6 µM [activator, partial curve, poor fit] | – |
| C=CCSC1=NC(=O)/C(=C/c2cccs2)S1 | inconclusive: 23.1 µM [activator, partial curve, poor fit] | – |
| Cc1nn(-c2ccc(N3CCCCC3)nn2)c(C)c1CCC(=O)Nc1cc(F)ccc1F | – | inactive: 3.3% |
| O=C(NCCOc1ccccc1)c1cc(S(=O)(=O)N2CCOCC2)ccc1F | – | inactive: -0.687% |

| Structure (SMILES) | Potency | activity change, positive = activation |
| --- | --- | --- |
| Cc1ccc(/C=C/C(=O)NC2CCCCCCC2)o1 | inconclusive: 25.9 µM [activator, single point] | – |
| CC(=O)Nc1ccc(SC[C@H](CC(C)C)N2CCN(CC(C)C)CCC2=O)cc1 | – | inactive: 0.876% |
| O=S(=O)(c1cccc(-c2nc3n(n2)Cc2ccccc2-3)c1)N1CCCC1 | – | inactive: 0.152% |
| CC(=O)c1ccc(NC2OC(C)C(O)C(O)C2O)cc1 (centres undefined) | – | inactive: 6.82% |
| COc1ccc(NC(=O)CS(=O)(=O)Cc2ccccc2)c([N+](=O)[O-])c1 | inconclusive: 20.6 µM [activator, partial curve, poor fit] | – |
| NS(=O)(=O)c1c(Sc2ccccc2C(=O)O)ccc2ccccc12 | inconclusive: 18.3 µM [activator, partial curve, poor fit] | – |
| O=C(Cn1cnc2ccccc2c1=O)c1ccc(OC(F)F)cc1 | – | inactive: 13% |
| Cc1ccc(C(=O)NCc2ccco2)cc1 | – | inactive: 8.6% |
| Cc1ccccc1SCC(=O)OCC(=O)NCCNC(=O)COC(=O)CSc1ccccc1C | – | inactive: 0.971% |
| CCn1c(C)nc2cc(C(=O)NNC(=S)Nc3ccccc3)ccc21 | active: 10.3 µM | – |
| Cc1nc2ccccc2n1S(=O)(=O)c1ccc(Br)cc1 | – | inactive: -1.9% |
| COc1cccc(NC(=S)N(CCCN2CCOCC2)C(C)c2cc3cccc(OC)c3o2)c1 (centres undefined) | inconclusive: 0.231 µM [activator, partial curve, poor fit] | – |
| CC(C)(C)C(=O)Nc1ccc(C(=O)NNC(=O)c2ccccc2)cc1 | – | inactive: 9.55% |
| CCOC(=O)C1CCN(C(=O)CCc2nc3sc4c(c3c(=O)[nH]2)CCCC4)CC1 | – | inactive: 1.01% |
| COc1ccc(NC(=O)c2ccc3nc(C)sc3c2)cc1 | inconclusive: 20.6 µM [activator, single point] | – |
| CCOCC(=O)Nc1cc(C(=O)NCCc2ccccc2)ccc1Cl | inconclusive: 2.59 µM [activator, full curve] | – |
| CN[C@H](C(=O)NC[C@H]1O[C@@H](n2cnc3c(N)ncnc32)[C@H](O)[C@@H]1O)[C@@H](C)OCc1ccccc1 | – | inactive: -1.8% |
| CC(=O)Nc1ccc(NC(=O)CSc2nnc(NC(=O)c3cccc(F)c3)s2)cc1 | inconclusive: 16.4 µM [activator, partial curve] | – |
| C=CCOc1ccc(/C(CC)=N/O)c(OC)c1 | inconclusive: 14.6 µM [activator, partial curve, poor fit] | – |
| CC1CCCC(NCC(=O)Nc2ccc(C(N)=O)cc2)C1C (centres undefined) | – | inactive: 0.0097% |
| CCCCc1nc(NCCN2CCOCC2)c(C#N)c2c1COC(C)(C)C2 | – | inactive: 1.53% |
| CN(C)c1ccc(CNc2nc3ccccc3s2)cc1 | active: 0.461 µM | – |
| O=C(c1ccco1)N1CCN(C(=S)Nc2ccccc2C(F)(F)F)CC1 | – | inactive: -12% |
| COc1ccc(-c2cnn3c4c(c(C)nc23)CCN4C2CCCC2)cc1OC | – | inactive: 4.15% |
